# Measurements: ChEMBL document CHEMBL5606460, “ASAP - DENV-2 NS2B-NS3 protease fluorescence single point” (2024)
# The campaign covered roughly 2,000 compounds. About 110 (5.5%) showed an effect of 50% or more. The list shows a part of the results.
# Target: Genome polyprotein (dengue virus type 2) (UniProt P29990)
# [1] = Thailand/16681/1984, Concentration 25.0 uM, Number of replicates 1.0
compound,measurement,setting,value
O=Cc1ccc(N2CCC(C(=O)N3CCc4ccccc4[C@H]3c3ccccc3)CC2)cc1,inhibition,[1],15.9%
CC[C@H](NC(=O)C1CCN(c2ccc(C=O)cc2)CC1)c1cccc(C)n1,inhibition,[1],13.4%
CCn1ccnc(N2CC[C@H](c3ccc(F)cc3)C2)c1=O,inhibition,"Thailand/16681/1984, Concentration 49.5 uM, Number of replicates 2.0, Standard deviation 1.1108054806137186 %",9.05%
same,inhibition,"Thailand/16681/1984, Concentration 99.01 uM, Number of replicates 2.0, Standard deviation 0.4960879631109318 %",17.7%
same,inhibition,"Thailand/16681/1984, Concentration 198.0 uM, Number of replicates 2.0, Standard deviation 0.6975633859845287 %",30.7%
CNC(=O)c1cncnc1NS(=O)(=O)c1ccc(Oc2ccccc2Cl)cc1,inhibition,"Thailand/16681/1984, Concentration 49.5 uM, Number of replicates 2.0, Standard deviation 1.0127526920144583 %",5.46%
same,inhibition,"Thailand/16681/1984, Concentration 99.01 uM, Number of replicates 2.0, Standard deviation 1.3865274661736828 %",5.75%
same,inhibition,"Thailand/16681/1984, Concentration 198.0 uM, Number of replicates 2.0, Standard deviation 1.0625889801550739 %",3.56%
c1ccc2c([C@H]3CCN(CC[C@H]4CCOC4)C3)c[nH]c2c1,inhibition,"Thailand/16681/1984, Concentration 49.5 uM, Number of replicates 2.0, Standard deviation 3.889990756370691 %",-1.18%
same,inhibition,"Thailand/16681/1984, Concentration 99.01 uM, Number of replicates 2.0, Standard deviation 3.7250274012431723 %",-0.886%
same,inhibition,"Thailand/16681/1984, Concentration 198.0 uM, Number of replicates 2.0, Standard deviation 4.094049612470612 %",-0.046%
O=Cc1ccc(N2CCC(C(=O)NCCc3ccc(Cl)c(Cl)c3)CC2)cc1,inhibition,[1],11.5%
NCc1cccc(NC(=O)C2(NC(=O)OCc3ccccc3)CC(F)(F)C2)c1,inhibition,"Thailand/16681/1984, Concentration 49.5 uM, Number of replicates 2.0, Standard deviation 2.2677200349668407 %",-2.94%
same,inhibition,"Thailand/16681/1984, Concentration 99.01 uM, Number of replicates 2.0, Standard deviation 0.8839411333719474 %",-2.06%
same,inhibition,"Thailand/16681/1984, Concentration 198.0 uM, Number of replicates 2.0, Standard deviation 0.8051076448684426 %",-2.25%
Cc1cc(CO)c2cccc(NC(=O)CC3CCNCC3)c2n1,inhibition,"Thailand/16681/1984, Concentration 49.95 uM, Number of replicates 2.0, Standard deviation 2.142909982415651 %",8.3%
same,inhibition,"Thailand/16681/1984, Concentration 99.9 uM, Number of replicates 2.0, Standard deviation 0.2007188026491294 %",53.9%
NCCOc1cccc2c1CCB(O)O2,inhibition,"Thailand/16681/1984, Concentration 49.5 uM, Number of replicates 2.0, Standard deviation 0.44890068869292293 %",-4.07%
same,inhibition,"Thailand/16681/1984, Concentration 99.01 uM, Number of replicates 2.0, Standard deviation 0.9787506376845975 %",-4.53%
same,inhibition,"Thailand/16681/1984, Concentration 198.0 uM, Number of replicates 2.0, Standard deviation 0.44105092245146593 %",-3.47%
CSc1ccc(CNC(=O)C2CCN(c3ccc(C=O)cc3)CC2)cc1,inhibition,[1],3.48%
Cn1ccnc1-c1cc(NC(=O)c2cnn([C@H]3CCCNC3)c2)[nH]n1,inhibition,"Thailand/16681/1984, Concentration 49.5 uM, Number of replicates 2.0, Standard deviation 0.3048681328854907 %",-0.353%
same,inhibition,"Thailand/16681/1984, Concentration 99.01 uM, Number of replicates 2.0, Standard deviation 0.7080640467517072 %",0.421%
same,inhibition,"Thailand/16681/1984, Concentration 198.0 uM, Number of replicates 2.0, Standard deviation 1.3386104401471322 %",0.702%
OB(O)c1cccc(-c2noc([C@H]3CCN4CCC[C@H]4C3)n2)c1,inhibition,"Thailand/16681/1984, Concentration 49.5 uM, Number of replicates 2.0, Standard deviation 10.721987987903457 %",1.7%
same,inhibition,"Thailand/16681/1984, Concentration 99.01 uM, Number of replicates 2.0, Standard deviation 0.014886266894047772 %",-2.79%
same,inhibition,"Thailand/16681/1984, Concentration 198.0 uM, Number of replicates 2.0, Standard deviation 1.9724261487764787 %",-4.29%
COc1cc(C(=O)N(C)C)nc(N2CCNCC2)n1,inhibition,"Thailand/16681/1984, Concentration 49.5 uM, Number of replicates 2.0, Standard deviation 4.026406870890022 %",-3.23%
same,inhibition,"Thailand/16681/1984, Concentration 99.01 uM, Number of replicates 2.0, Standard deviation 2.6098419358385048 %",-4.25%
same,inhibition,"Thailand/16681/1984, Concentration 198.0 uM, Number of replicates 2.0, Standard deviation 2.250930669275132 %",-2.7%
Cc1cc(CO)c2cccc(CC(=O)NCC(N)=O)c2n1,inhibition,"Thailand/16681/1984, Concentration 49.95 uM, Number of replicates 2.0, Standard deviation 1.3653333333441007 %",-7.85%
same,inhibition,"Thailand/16681/1984, Concentration 99.9 uM, Number of replicates 2.0, Standard deviation 0.5261932884148693 %",-6.61%
O=Cc1ccc(N2CCC(C(=O)Nc3ccccc3I)CC2)cc1,inhibition,[1],13.5%
O=Cc1ccc(N2CCC(C(=O)NCCc3cccc4ccccc34)CC2)cc1,inhibition,[1],11.1%
COc1ccc(S(=O)(=O)N[C@H]2CC[C@H](C(=O)Nc3nc4ccccc4s3)CC2)cc1,inhibition,"Thailand/16681/1984, Concentration 49.5 uM, Number of replicates 2.0, Standard deviation 3.075987766242933 %",3.33%
same,inhibition,"Thailand/16681/1984, Concentration 99.01 uM, Number of replicates 2.0, Standard deviation 2.9677873652214015 %",4.33%
same,inhibition,"Thailand/16681/1984, Concentration 198.0 uM, Number of replicates 2.0, Standard deviation 2.5754934344138842 %",4.36%
c1ccc2c(CN3CCC(c4ccn[nH]4)CC3)c[nH]c2c1,inhibition,"Thailand/16681/1984, Concentration 49.5 uM, Number of replicates 2.0, Standard deviation 1.6296089724183547 %",1.05%
same,inhibition,"Thailand/16681/1984, Concentration 99.01 uM, Number of replicates 2.0, Standard deviation 0.6845016983093661 %",1.06%
same,inhibition,"Thailand/16681/1984, Concentration 198.0 uM, Number of replicates 2.0, Standard deviation 0.1575177771632809 %",2.42%
Cc1cc(CCNC(=O)[C@]2(c3ccc(F)cc3)CCCNC2)c2cn[nH]c2c1,inhibition,"Thailand/16681/1984, Concentration 49.5 uM, Number of replicates 2.0, Standard deviation 0.014046825478078263 %",-0.005%
same,inhibition,"Thailand/16681/1984, Concentration 99.01 uM, Number of replicates 2.0, Standard deviation 0.7694538976922883 %",1.15%
same,inhibition,"Thailand/16681/1984, Concentration 198.0 uM, Number of replicates 2.0, Standard deviation 0.5010032971716664 %",2.71%
Cc1ccc(OC2CCN(C(=O)C3CCN(c4ccc(C=O)cc4)CC3)CC2)cc1,inhibition,[1],11.3%
O=Cc1ccc(N2CCC(C(=O)NCc3ccccc3Br)CC2)cc1,inhibition,[1],12.3%
